In the supplement of paper PMC10477191 one finds attraction index data, which are given here for three compounds.

The test system of the test is Drosophila novamexicana. The test can be described thus: attraction index (odor vs solvent trap) (index (-1 to 1)); higher = more attraction to the odorant. To be noted: odor dose: 10^-2 dilution in mineral oil. Here is the method: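 Two-choice trap assay (odor 10^-2 in mineral oil vs solvent, 20 flies, 24 h) run in a Percival incubator at test temperatures of 10-35 °C and 70% humidity, with flies reared at 18 or 25 °C. Attraction index = (O-C)/n; 10 replicates. The paper excluded the 10 and 35 °C tests because of impaired locomotion.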

The mark [1] stands for this setting: test temperature 15 °C, rearing temperature 18 °C.
Where [2] appears, read: test temperature 15 °C, rearing temperature 25 °C.
The mark [3] stands for this setting: test temperature 20 °C, rearing temperature 18 °C.
The mark [4] stands for this setting: test temperature 20 °C, rearing temperature 25 °C.
Where [5] appears, read: test temperature 25 °C, rearing temperature 18 °C.
[6] abbreviates: test temperature 25 °C, rearing temperature 25 °C.
Setting [7] is: test temperature 30 °C, rearing temperature 18 °C.
Where [8] appears, read: test temperature 30 °C, rearing temperature 25 °C.

± gives the standard deviation of the averaged measurements. This is one part of the list.

On to `CC(C)OC(=O)c1ccccc1` [isopropyl benzoate], for which the attraction index was -0.00925 ± 0.32 under setting [1]; 0.0382 ± 0.59 under setting [2]; -0.0426 ± 0.48 under setting [3]; 0.00328 ± 0.56 under setting [4]; -0.0973 ± 0.44 under setting [5]; -0.181 ± 0.28 under setting [6]. The attraction index under setting [7] is -0.171 ± 0.43 and the attraction index under setting [8] is -0.378 ± 0.41.

Take `COC(=O)c1ccccc1O` [methyl salicylate]: the attraction index is, setting by setting: under setting [1], 0.0847 ± 0.67; under setting [2], -0.397 ± 0.23; under setting [3], -0.213 ± 0.47; under setting [4], -0.246 ± 0.33; under setting [5], -0.199 ± 0.27; under setting [6], 0.203 ± 0.29. The attraction index is -0.124 ± 0.49 under setting [7] and -0.103 ± 0.32 under setting [8].

Consider `COc1ccccc1O` [guaiacol], for which the attraction index reads like this: under setting [1], 0.149 ± 0.75; under setting [2], -0.195 ± 0.36; under setting [3], -0.224 ± 0.74; under setting [4], -0.0986 ± 0.5; under setting [5], -0.252 ± 0.6; under setting [6], -0.209 ± 0.44. In addition, the attraction index runs as follows: under setting [7], -0.155 ± 0.44; under setting [8], -0.454 ± 0.36.
